Experimental data: article PMC10668032
The other results are listed elsewhere or left out. At the low end of the ranking the order means little.

Molecular target: SIX1 homeodomain (reference allele) (UniProt Q15475)
Test: universal protein binding microarray
Conditions: Universal all-10-mer PBM (8x60K, AMADID 030236), 300 nM GST-tagged protein, Alexa Fluor 488 anti-GST; buffer, salt, pH and temperature not stated; high values mean tight binding; most listed sequences are background and not binding sites; double strand, one strand shown

Sequence	binding signal [E-score]
ACTGGACT	-0.238
TACCCTAA	0.0851
CCGCGACC	-0.0537
ATGATACC	0.489
AGGGCGGG	-0.0824
GAGTTTAC	-0.257
ATATTATC	0.261
GCAGCACC	-0.0737
CAGTGATG	-0.161
CATCCAAG	0.00634
ATGAAACC	0.242
GACATCCA	-0.104
ACCACAAT	0.04
CGAAAAAC	-0.13
AAGCTAAT	-0.0694
AAGCGAGG	-0.0432
GAATCTTA	-0.176
ATACGCTA	0.281
ACGACAGT	-0.174
CATTCTGG	-0.183
ATCGGCGA	0.263
TAGGACAA	-0.0381
AGAACGAC	-0.0982
CCGTGGGA	-0.111
CATGCTGC	-0.192

Sequence	binding signal [E-score]
AGATATGA	0.291
AGAAGCTA	-0.0476
ATGCCTGG	-0.0281
ACACCTCC	0.347
AGCCTCGG	-0.0606
ACTTATTG	-0.17
TGGTAAAA	-0.187
AAGAATCC	0.127
GGGGTATA	0.441
GGCGTTAC	-0.0948
GTTGTGCA	-0.21
AGCGCATC	-0.063
AAAACAGG	-0.187
ACCCCTAT	0.339
ACATTCTC	-0.228
ACACCCAT	0.271
CAAGTGCA	-0.248
AGGCTAGA	-0.102
AGGCGACG	-0.188
AGCGTCTC	0.0912
TGGGCACA	-0.0211
CCCCAGTA	0.0352
CGTCTGCA	-0.0977
TAGCGGGA	-0.0673
ACGACAAG	-0.0528

Sequence	binding signal [E-score]
CTCCGCAG	-0.107
AAGGATTC	-0.0708
AATAGAGT	-0.162
CTGGACTC	-0.18
AGTCCGGC	-0.205
AATGTCTC	0.0976
GGTACAGA	0.0115
ATGAGACG	0.251
CTCGCGGA	0.0543
AGCCTATG	-0.123
GTCAGGAC	-0.162
ATCCACAC	0.296
ATAGAACA	0.0467
CATTCATA	0.0087
AACCTCGG	-0.0299
TCTACAGA	-0.114
CATTATGC	0.0719
CCAGGAAG	-0.145
CGTAAGTC	-0.127
AAATTATT	-0.26
CAAATATG	0.061
CTCAACTA	-0.0318
TAAGTACA	-0.0744
CAGCTGAA	-0.268
TTAAACAA	-0.272

Sequence	binding signal [E-score]
CCTATCCC	0.291
TAGCCATA	0.127
AAGAAAAC	-0.248
ATAGTTGC	0.0147
AGTACGCC	0.0371
GAAACCGC	0.0868
AGCGACGC	-0.199
ACCGCAAT	0.0086
CAAGCTTA	-0.13
GATGGAAC	-0.0968
CGTGGGCC	-0.262
AAACTACT	-0.0526
AGCGTGAT	0.203
CGTTATAC	0.204
GTTGCGAA	-0.214
AACGATCG	0.0917
AGCTGCCC	0.0523
CATATATC	0.341
AGTTTCCG	-0.225
ACATTATG	0.0141
AGAGGTTA	-0.169
CTAGCGCA	-0.153
CCGAGCGA	0.0573
GCTGAGTA	-0.161
GGTATACC	0.464

Sequence	binding signal [E-score]
CTGGACCC	-0.11
GACTGTGA	-0.119
AGAATCCA	-0.00306
ATATATTG	0.238
CTATACGC	0.215
AGACTCTC	-0.105
GTTAGCAA	-0.238
ACGCTTGC	-0.183
AGGCATTA	0.0197
CATGCGAA	0.0262
CAAATAGA	0.0634
ACGATCAC	0.177
CCTAATTC	-0.0644
GGATGGAC	-0.0612
CAGGATGC	-0.000825
CCATAAGG	-0.154
CGCAGGAC	-0.0697
ATCAGATA	0.378
AGGTGGGC	-0.238
GCGGTAGC	-0.0389
CCGGAAAG	-0.0595
ACGTTCAA	-0.157
AATCATCG	-0.0775
CTACGCTA	-0.15
GTACGGCA	-0.0935

Sequence	binding signal [E-score]
CTTGATAC	0.442
AACTACAT	-0.0778
CGTTAACA	-0.138
ATATGGAA	0.203
ATTTGCCG	-0.188
CAGCACAA	-0.049
AATGCAAT	-0.187
CCGAGAGG	-0.1
CTCAGCGC	-0.0859
CTTCGATC	0.152
GGTACGCA	-0.0176
GGGCCGGA	-0.0424
AGCTCATA	0.146
AAGACGAT	0.17
GAAATGCA	-0.0981
GAGCTCAA	-0.0962
ACCACACT	-0.0791
AGGATTCA	-0.0234
CCATTTGC	-0.189
AGATGGTC	-0.165
AGTCATCG	-0.0315
CCGCACTC	0.0317
GCGCTGCA	-0.253
GGAATCTA	0.0166
CTCCTATC	0.271

Sequence	binding signal [E-score]
GAGAGAGA	0.0688
AATCGATA	0.335
GAAGAACA	-0.131
AGAAGCAA	-0.255
AGAACCCC	0.034
AGGCTTAT	-0.0517
CCCGTACA	-0.243
GAGGGAAA	-0.24
ATGCCTTG	-0.182
CGGCTGTA	-0.139
GCCAGCTA	-0.144
ACTTTACC	-0.101
AGTCGGAT	0.296
CGTTGTTA	-0.0655
CGCTCGAG	-0.12
GCAGGACC	-0.0817
ACCGACTA	-0.202
GAAATCTC	-0.199
GGTCTTTA	0.0182
AGTATAGG	0.0935
GACTCATA	0.0327
AACGCCGC	-0.243
